In PubChem BioAssay AID686979 (National Center for Advancing Translational Sciences (NCATS), 2013):
Where “and” joins values, the source holds several entries; their conditions need not be identical. Equal values may be shown once. Screen size: about 420,000 compounds; about 50,000 (12%) were called active. The inconclusive results got no clear call from the source; some entries with a clear call stand among them for comparison. The call rests on the fitted dose curve; in most records, active means well fitted inhibition curve with a large enough effect; inconclusive means small, poorly fitted or top-dose-only effect; inactive means flat fitted curve, though single readings scatter. Potencies beside an inconclusive call are fits to weak or partial responses and may not hold up.

Experiment: qHTS for Inhibitors of human tyrosyl-DNA phosphodiesterase 1 (TDP1): qHTS in cells in presence of CPT; further: nearly all actives have a fitted effect of over 55% in size
Details: chicken DT40 Tdp1-/-;hTDP1 cells + 20 nM CPT, ATP luminescence, 48 h; activity change, negative = growth inhibition: at 46.2 µM (top of the series) unless noted
Procedure, shortened: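 Chicken DT40 Tdp1-/- cells stably complemented with human TDP1 were seeded at 400 cells/well in medium containing 20 nM camptothecin, exposed to pin-transferred compounds, and grown at 37 °C for at least 48 hr. Viability was read as ATP luminescence.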
On the % scale 0 is the no-effect control and ±100 the full control effect; potency means the concentration at half of the fitted maximal effect; tags describe the fitted curve by direction and shape.

| SMILES | Potency | activity change, negative = growth inhibition |
| --- | --- | --- |
| CC(C#N)(NC(=O)CN1CCN(S(=O)(=O)c2ccc(Br)cc2Cl)CC1)C1CC1 (centres undefined) | inconclusive: 13 µM [inhibitor, partial curve] | – |
| COc1cc(C(=O)NC2CCN(Cc3ccccc3)CC2)cc(Cl)c1OC | inconclusive: 29.1 µM [inhibitor, single point] | – |
| Cc1ccc(C)c(N2CCN(C(=O)c3ccc(CS(=O)Cc4ccc(Cl)cc4)o3)CC2)c1 (centres undefined) | inconclusive: 23.1 µM [inhibitor, single point] | – |
| CSc1ncnc2c1ncn2CCCN1CCN(c2ccccn2)CC1 | inconclusive: 29.1 µM [inhibitor, single point] | – |
| CCOc1ccc(C(=O)Nc2cc3c(cc2N2CCCC2)n(CC)c(=O)n3CC)cc1OCC | inconclusive: 29.1 µM [inhibitor, single point] | – |
| COc1ccc(C)cc1S(=O)(=O)NCC(c1ccco1)N1CCc2ccccc2C1 (centres undefined) | active: 29.1 µM | – |
| Cc1ccccc1-n1ncc(C(C)NC(=O)c2ccccc2)c1C (centres undefined) | inconclusive: 20.6 µM [inhibitor, single point] | – |
| CCOC1=C2[C@@H](CN(S(=O)(=O)c3ccc(C)cc3)[C@H]2c2ccccc2F)[C@H]2C(=O)N(Cc3ccccc3)C(=O)[C@H]2C1 | inconclusive: 29.1 µM [inhibitor, single point] | – |
| COc1ccc(N2CC(C(=O)N[C@H](C(=O)NC3CCCC3)C(C)C)CC2=O)cc1 (some centres undefined) | inactive | – |
| CCn1c(SCC(=O)N2CCCc3ccccc32)nc2ccccc2c1=O | inconclusive: 25.9 µM [inhibitor, single point] | – |
| Nc1cc(Cl)ccc1CN1C(=O)c2ccccc2C1=O | inconclusive: 16.4 µM [inhibitor, single point] | – |
| CCN(CC)C(=O)c1sc2nc(-c3ccccn3)[nH]c(=O)c2c1C | active: 23.1 µM | – |
| Cc1ccc(C)c(N2CCN(C(=O)c3cc4cc5ccc(C)cc5nc4s3)CC2)c1 | inconclusive: 0.651 µM [inhibitor, single point] | – |
| CCCc1cc(=O)oc2cc(C)cc(OCC(=O)N[C@@H](CSCc3ccccc3)C(=O)O)c12 | inactive | – |
| CC(NC(=O)C1CCCN(S(=O)(=O)c2ccc(-n3cnnn3)cc2)C1)c1ccc(F)cc1 (centres undefined) | inconclusive: 7.31 µM [inhibitor, partial curve] | – |
| CCNC(=O)c1sc(-c2ccccc2)nc1C | inactive | – |
| CCCNC(=O)C1(C)CCN(C(=O)c2ccc3ccccc3c2)C1 (centres undefined) | inactive | – |
| CCOC(=O)c1c(C)c2c(=O)[nH]cnc2n1-c1ccccc1 | inconclusive: 5.17 µM [inhibitor, full curve] | – |
| CN1C(=O)C2(Nc3ccccc3-c3nc4ccccc4n32)c2ccccc21 (centres undefined) | inactive | – |
| CSc1nc(-c2ccccc2)nc(N2CCCC2)c1C(C)=O | inactive | – |
| COc1cccc(CN(C)C(=O)CSCC(=O)Nc2ccc(C)cc2)c1OC | – | inconclusive: -30.3% [inhibitor] |
| CCc1nnc(NC(=O)c2cc(-c3ccccc3)nn2-c2ccccc2)s1 | inconclusive: 20.6 µM [inhibitor, partial curve, poor fit] | – |
| CCOc1ccc(S(=O)(=O)N2CCN(C(=O)CCOc3ccccc3C)CC2)cc1 | inconclusive: 23.1 µM [inhibitor, single point] | – |

| SMILES | Potency | activity change, negative = growth inhibition |
| --- | --- | --- |
| C[n+]1c(-c2ccccc2)sc([S-])c1-c1ccccc1 | active: 23.1 µM | – |
| Cc1ccccc1-n1c(Cn2c(=O)sc3ccccc32)nnc1SC(C)C | inconclusive: 25.9 µM [inhibitor, single point] | – |
| COc1ccccc1/C=C/C=C1\Oc2c(ccc(O)c2CN2CCN(CCO)CC2)C1=O | inconclusive: 25.9 µM [inhibitor, single point] | – |
| CCCCN(C(=O)COC(=O)c1ccc(C)s1)c1c(N)n(CCC)c(=O)[nH]c1=O | inconclusive: 29.1 µM [inhibitor, single point] | – |
| Nc1c(C2CCCCC2)c(=O)on1C(=O)c1ccccc1 | inconclusive: 25.9 µM [inhibitor, single point] | – |
| COc1ccccc1NC(=O)CSc1nnc(Cc2cccs2)n1C | inconclusive: 9.2 µM [inhibitor, partial curve, poor fit] | – |
| Cc1ccc(S(=O)(=O)Nc2ccc(S(=O)(=O)Nc3ncccn3)cc2)cc1 | inactive | – |
| Cc1ccc(CNC(=O)CCn2ccc3cc(S(=O)(=O)N4CCCC4)ccc32)cc1 | inconclusive: 29.1 µM [inhibitor, single point] | – |
| Cc1cc(C(=O)N/N=C\c2ccc(COc3ccc([N+](=O)[O-])cc3)o2)ccc1[N+](=O)[O-] | inconclusive: 20.6 µM [inhibitor, single point] | – |
| Cc1cc(Cl)c2oc(C(=O)N(C)CCCN3CCOCC3)c(C)c2c1 | inconclusive: 20.6 µM [inhibitor, single point] | – |
| CCN(CC)CCN1C(=O)Cn2c(C)c(C)c3cccc1c32 | inconclusive: 18.4 µM [inhibitor, single point] and inconclusive: 16.4 µM [inhibitor, partial curve] | – |
| CC(=O)N(C)c1ccc(NC(=S)Nc2ccccc2)cc1 | inactive | – |
| Cc1ccc([N+](=O)[O-])cc1N=C(c1cccc(Br)c1)N1CCOCC1 | inconclusive: 20.6 µM [inhibitor, single point] | – |
| N#CC1=C(N)Oc2cc(N)ccc2C1c1ccsc1 (centres undefined) | inactive | – |
| Cc1ccc(CSc2oc(-c3ccco3)nc2S(=O)(=O)c2ccc(Br)cc2)cc1 | inconclusive: 23.1 µM [inhibitor, single point] | – |
| O=C(Nc1ccccc1-c1nc2ccccc2[nH]1)c1ccc(N2C(=O)CCC2=O)cc1 | inconclusive: 25.9 µM [inhibitor, single point] | – |
| CCCC(C(=O)O)N1C(=O)/C(=C2\C(=O)N(C)c3ccccc32)SC1=S (centres undefined) | inconclusive: 18.4 µM [inhibitor, single point] | – |
| CCOc1ccc(C2=Nn3cnnc3SC2)cc1 | inconclusive: 8.2 µM [inhibitor, partial curve] | – |
| O=C(CN1CCN(c2ccc(Cl)cc2)CC1)Nc1ccc(Cl)c(C(F)(F)F)c1 | inconclusive: 29.1 µM [inhibitor, single point] | – |
| O=C1NC(c2cccs2)Nc2ccccc21 (centres undefined) | active: 5.17 µM | – |
| CCc1ccc(NC(=O)Cn2c(=O)n(Cc3nc(C)no3)c(=O)c3cc4c(cc32)OCO4)cc1 | inconclusive: 20.6 µM [inhibitor, single point] | – |
| O=C(Nc1cccc(C(=O)Nc2cccc(Br)c2)c1)c1ccccc1 | active: 23.1 µM | – |
| COc1ccccc1NC(=O)CSc1nnc(-c2nonc2NC(C)=O)n1-c1ccccc1 | inconclusive: 20.6 µM [inhibitor, single point] | – |

| SMILES | Potency | activity change, negative = growth inhibition |
| --- | --- | --- |
| COc1ccccc1CNCCS(=O)(=O)NCc1ccccc1OC | inconclusive: 32.6 µM [inhibitor, single point] | – |
| CCC(=O)N1CCC1(C)C(=O)NCc1ccc(SC)cc1 (centres undefined) | inactive | – |
| COc1ccc(-c2cc(-c3ccccc3)nc(-c3ccc4c(c3)NC(=O)CO4)c2)cc1 | inconclusive: 29.1 µM [inhibitor, single point] | – |
| CCOc1ccc(N)c(SSc2cc(OCC)ccc2N)c1 | active: 2.59 µM | – |
| COCc1nnc(NC(=O)c2ccc(S(=O)(=O)N(CC(C)C)CC(C)C)cc2)o1 | inconclusive: 25.9 µM [inhibitor, single point] | – |
| CC1CCCCC1NC(=O)COC(=O)c1cccn1C (centres undefined) | inactive | – |
| CCOC(=O)c1cnc2c(C)cc(C)cc2c1NCCCN1CCOCC1 | inconclusive: 18.4 µM [inhibitor, single point] | – |
| CC(C)CN(C(=O)C1CSC2(C)CCC(=O)N12)c1c(N)n(Cc2ccccc2)c(=O)[nH]c1=O (centres undefined) | inactive | – |
| N#C/C(=C\c1cccs1)C(=O)NCc1ccccc1 | active: 11.6 µM | – |
| Cc1cc(C)cc(NC(=S)N2CCN(c3ncccn3)CC2)c1 | inactive | – |
| Cc1ccc(C)c(OCC(=O)N2CCc3ccccc3C2)c1 | inactive | – |
| Cc1nn(-c2ccc(C(=O)O)cc2)c(N)c1-c1ccccc1 | inactive | – |
| CC(C)CC(NC(=O)C1CCC(=O)N1)C(=O)NC(CC(C)C)C(=O)N1CCCC1C(N)=O (centres undefined) | inactive | – |
| CNC(=S)N/N=C(\C)c1ccc(N2CCOCC2)cc1 | inconclusive: 29.1 µM [inhibitor, single point] | – |
| COc1ccc(NS(=O)(=O)c2ccc(NC(=O)CCNS(=O)(=O)c3ccc(C)cc3)cc2)cc1 | inconclusive: 29.1 µM [inhibitor, single point] | – |
| O=C(CS(=O)(=O)Cc1ccccc1)N1CCN(Cc2ccc3c(c2)OCO3)CC1 | inconclusive: 29.1 µM [inhibitor, single point] | – |
| CC(C)CCNC(=O)C1CCN(c2nnc(-n3cccc3)s2)CC1 | inconclusive: 29.1 µM [inhibitor, single point] | – |
| CC(Oc1ccc(F)cc1)C(=O)Nc1ccccc1C(=O)N1CCCCC1 (centres undefined) | active: 14.6 µM | – |
| Cc1ccc(NC(=O)CSc2nnc(CNC(=O)c3cccs3)o2)c(C)c1 | inactive | – |
| CC1(C(=O)Nc2ccccc2Cc2ccccc2)CCN1CCc1ccccc1 (centres undefined) | inconclusive: 29.1 µM [inhibitor, single point] | – |
| COc1cccc(-c2nccc(NCc3cccs3)n2)c1 | inconclusive: 29.1 µM [inhibitor, single point] | – |
| O=C(O)CCN1C(=O)/C(=C\c2cccc(Oc3ccccc3)c2)SC1=S | inactive | – |
| Cc1nc2ccc(C(=O)Nc3ccc4c(c3)OCC(=O)N4)cn2c1N(C)C(=O)CCc1ccccc1 | inconclusive: 29.1 µM [inhibitor, single point] | – |
